Where “and” joins values, the source holds several entries; their conditions need not be identical. Equal values may be shown once. The shares of active, inactive and inconclusive entries below differ from those in the screen. Potencies beside an inconclusive call are fits to weak or partial responses and may not hold up. Calls of active or inactive are those of the source. Calls follow the shape of the dose curve; as a rule, active = well fitted cell-killing curve with a large enough effect; inconclusive = small, poorly fitted or top-dose-only effect, or effect the other way; inactive = no such curve, though single readings can be large or run the other way.
What was measured:
[1] = Viability qHTS for spleen associated tyrosine kinase inhibitor (SYKi) naive MV4-11 cells (AID 1963823); settings: MV4-11 AML viability, CellTiter-Glo luminescence, 72 h; viability (% of control): at 45 µM (top of the series); also: nearly all actives have a fitted effect of over 40% in size
Procedure, shortened: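 SYK inhibitor-naive MV4-11 cells, 500 per well, exposed to compounds for 72 hr at 37 C, 5% CO2. Viability read as CellTiter-Glo luminescence after 10 min at room temperature.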

[2] = Viability qHTS for spleen associated tyrosine kinase inhibitor (SYKi) drug resistant MV4-11 cells (AID 1963824); settings: SYKi-resistant MV4-11 viability, CellTiter-Glo, 72 h; series mostly up to 45 µM; also: nearly all actives have a fitted effect of over 35% in size
Procedure, shortened: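 SYK inhibitor-resistant MV4-11 AML cells, 500 per well, added to predispensed compounds and incubated 72 hr at 37 C, 5% CO2. Viability measured by CellTiter-Glo luminescence after 10 min at room temperature.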
Potency is read from the fitted curve at half-maximal effect; tags tell the direction and shape of the fitted curve.

| SMILES | Potency [1] | Potency [2] | viability (% of control) [1] |
| --- | --- | --- | --- |
| C=C(C)C(=O)O[C@H]1/C(C=O)=C\CC/C(CO)=C/[C@H]2OC(=O)C(=C)[C@@H]2[C@@H]1OC | inconclusive: 4.53 µM [cytotoxic, full curve, poor fit] | inconclusive: 5.7 µM [cytotoxic, partial curve, poor fit] |  |
| Cc1ccc(S(=O)(=O)NC(=O)NC2CCCCCCC2)cc1 | inactive | inconclusive: 0.0027 µM [rising, single point] |  |
| CC(=O)[C@@]1(O)CC[C@H]2[C@@H]3C[C@H](C)C4=CC(=O)CC[C@]4(C)[C@H]3CC[C@@]21C | inconclusive: 33.5 µM [cytotoxic, single point] | inconclusive: 26.6 µM [cytotoxic, single point] |  |
| CC1(C(=O)O)CCCC2(C)C1CCC13CC(CCC21)C1(CO)OC31 (centres undefined) | inactive | inactive |  |
| CC(C)N(CCCCOCC(=O)NS(C)(=O)=O)c1cnc(-c2ccccc2)c(-c2ccccc2)n1 | inconclusive: 0.146 µM [cytotoxic, full curve, poor fit] | inconclusive: 20.6 µM [cytotoxic, single point] |  |
| Cc1ccc2nc(NC(=O)CSc3nc4c(c(=O)n3-c3ccc(F)cc3)SCC4)sc2c1 | inactive | inconclusive: 16.4 µM [cytotoxic, partial curve, poor fit] |  |
| CN(C)CCN(Cc1ccccc1)C(=O)c1cc(-c2ccc(F)cc2)n2nc(C(C)(C)C)cc2n1 | inconclusive: 7.31 µM [cytotoxic, partial curve] | inconclusive: 4.61 µM [cytotoxic, full curve] |  |
| CCCc1c(C(C)C)nc(C(C)C)c([C@@H](C)O)c1-c1ccc(F)cc1O | active: 9.2 µM | active: 8.2 µM |  |
| C[C@H](C/C=C/C(C)(C)O)[C@H]1CC[C@@]2(C)[C@@H]3[C@@H](O[C@@H]4O[C@H](CO)[C@@H](O)[C@H](O)[C@H]4O)C=C4C(CC[C@H](O)C4(C)C)[C@]3(C=O)CC[C@]12C (some centres undefined) | inconclusive: 6.85 µM [cytotoxic, single point] | inconclusive: 4.32 µM [cytotoxic, partial curve, poor fit] |  |
| Cc1cc(C)c2c(N)c(C(=O)NCc3ccc(Cl)cc3)sc2n1 | inconclusive: 16.4 µM [cytotoxic, single point] | inconclusive: 23.1 µM [cytotoxic, single point] |  |
| O=C(Nc1ccc(N2C(=O)[C@@H]3[C@H](C2=O)[C@@H]2C=C[C@H]3C2)c(Cl)c1)c1ccccn1 | inconclusive: 25.9 µM [cytotoxic, single point] | inconclusive: 23.1 µM [cytotoxic, partial curve] |  |
| C/C=C1\[C@H](O[C@@H]2O[C@H](CO)[C@@H](O)[C@H](O)[C@H]2O)OC=C2C(=O)OCCc3ccc(O)c(c3)Oc3ccc(cc3)CCOC(=O)C[C@H]21 | inconclusive: 1.37 µM [cytotoxic, full curve, poor fit] | active: 3.85 µM |  |
| C=CC(=O)N1CCCN(c2cc(NCCC(=O)O)nc(-c3ccccn3)n2)CC1 | inactive | inactive |  |
| COc1cc2c(NC3CCN(CC4CCCCC4)CC3)nc(N3CCCN(C(C)C)CC3)nc2cc1OCCCN1CCCCC1 | active: 2.59 µM and inconclusive: 2.35 µM [cytotoxic, full curve] | inconclusive: 2.63 µM [cytotoxic, full curve] |  |
| O=C(O)CCc1cccc(O[C@@H]2O[C@H](CO)[C@@H](O)[C@H](O)[C@H]2O)c1O | inactive | inactive |  |
| CCCCC(CC)COC(=O)c1ccccc1C(=O)O (centres undefined) | inconclusive: 27.9 µM [cytotoxic, single point] | active: 19.7 µM |  |
| CC1=NS(=O)(=O)c2cc(Cl)ccc2N1 | inactive | inactive |  |
| NC(=O)NC1NC(=O)NC1=O (centres undefined) | inactive | inactive |  |
| Cn1cc(S(=O)(=O)c2ccc(Cl)cc2)c2cccc(N3CCNCC3)c21 | inconclusive: 16.4 µM [cytotoxic, partial curve, poor fit] | active: 13 µM |  |
| O=C(OCC12OC1C=CC(OC(=O)c1ccccc1)C2O)c1ccccc1 (centres undefined) | inconclusive: 20.2 µM [cytotoxic, single point] | inconclusive: 10.1 µM [cytotoxic, single point] |  |
| C=C1C(=O)O[C@@H]2CC(C)=C([C@@H](C)CCCOC(C)=O)[C@@H](O)[C@H]12 | inactive | inconclusive: 16.1 µM [cytotoxic, single point] |  |

| SMILES | Potency [1] | Potency [2] | viability (% of control) [1] |
| --- | --- | --- | --- |
| CC(C)(C)OC(=O)c1ncn2c1C(C)(C)Nc1ccccc1-2 | inconclusive: 20.6 µM [cytotoxic, partial curve, poor fit] | inconclusive: 20.6 µM [cytotoxic, partial curve] |  |
| C[C@H](Nc1nc(N[C@H](C)C(F)(F)F)nc(-c2cccc(Cl)n2)n1)C(F)(F)F | inconclusive: 18.6 µM [cytotoxic, partial curve, poor fit] | inconclusive: 10.5 µM [cytotoxic, full curve] |  |
| COc1cccc(-c2c(C)n(Cc3c(F)cccc3C(F)(F)F)c(=O)n(C[C@H](NCCCC(=O)O)c3ccccc3)c2=O)c1F | inconclusive: 23.5 µM [cytotoxic, partial curve] and inconclusive: 18.6 µM [cytotoxic, partial curve, poor fit] | inconclusive: 20.9 µM [cytotoxic, partial curve] |  |
| Oc1ccc2c(-c3c(-c4ccccn4)nn4c3CCC4)ccnc2c1 | inconclusive: 29.1 µM [cytotoxic, single point] | inconclusive: 10.3 µM [cytotoxic, partial curve, poor fit] |  |
| CC(=O)C1=C(O)C=C2Oc3c(C(C)=O)c(O)c(C)c(O)c3[C@]2(C)C1=O | inactive | inactive |  |
| Cc1ccc(C(=O)N2CCN(c3ccc([N+](=O)[O-])cc3)CC2)cc1Cl | inconclusive: 13 µM [cytotoxic, partial curve] | inconclusive: 20.6 µM [cytotoxic, partial curve] |  |
| CO[C@H]1/C=C\C=C(\C)C(=O)NC2=CC(=O)C(NCCN(C)C)=C(C[C@@H](C)C[C@H](OC)[C@H](O)[C@@H](C)/C=C(/C)[C@@H]1OC(N)=O)C2=O | active: 0.0332 µM | active: 0.0833 µM |  |
| OC1CCC(Nc2ncc3nc(Nc4c(F)cc(F)cc4F)n([C@H]4CCOC4)c3n2)CC1 (some centres undefined) | inconclusive: 18.4 µM [cytotoxic, partial curve] | inconclusive: 23.1 µM [cytotoxic, single point] |  |
| CC1=C2C(=O)C=C(CO)[C@@H]2[C@H]2OC(=O)[C@H](C)[C@@H]2[C@@H](O)C1 | inactive | inactive |  |
| O=C(CN1C2=NCCN2c2ccccc21)c1ccc(-c2ccccc2)cc1 | inconclusive: 5.8 µM [cytotoxic, partial curve] | inconclusive: 3.66 µM [cytotoxic, full curve] |  |
| COC(=O)C(CC1(O)c2ccccc2N2C(=O)C(CC(C)C)NC21)n1cnc2ccccc2c1=O (centres undefined) | inconclusive: 14.2 µM [cytotoxic, single point] | inconclusive: 6.32 µM [cytotoxic, partial curve] |  |
| Nc1ccc(O)c(C(=O)O)c1 | inconclusive: 0.0008 µM | inactive |  |
| C/C=C(\C)C(=O)O[C@@H](C)[C@H]1CC[C@]2(O)C3CCC4C[C@@H](OC5CC(OC)C(OC6CC(OC)C(OC7CC(OC)C(OC8OC(C)C(OC9OC(CO)C(O)C(O)C9O)C(OC)C8O)C(C)O7)C(C)O6)C(C)O5)CC[C@]4(C)C3[C@H](O)[C@@H](O)[C@]12C (some centres undefined) |  | inconclusive: 0.436 µM [cytotoxic, partial curve] | inactive: 34.7% [at 9.25 µM] |
| COc1ccc(C2(N(C)C(=O)c3ccc(NC(=O)c4ccco4)cc3)CCOCC2)cc1 | inconclusive: 16.4 µM [cytotoxic, single point] | inconclusive: 11.6 µM [cytotoxic, partial curve, poor fit] |  |
| CC(C)(O)C1CC=C(C(=O)OC[C@H]2O[C@@H](OC(=O)C3=CCC(C(C)(C)O)CC3)[C@H](O)[C@@H](O)[C@@H]2O)CC1 (some centres undefined) | inactive | inactive |  |
| CN1CCN(C2=Nc3ccccc3Sc3ccc(Cl)cc32)CC1 | inconclusive: 26.6 µM [cytotoxic, single point] | inconclusive: 16.8 µM [cytotoxic, partial curve] |  |
| CC(=O)c1c(O)cc2cccc3c2c1CC(C)(O)O3 (centres undefined) | inactive | inactive |  |
| NCCNCCNCCN | inactive | inconclusive: 33.5 µM [cytotoxic, partial curve, poor fit] |  |
| C=C1CC2C3(C)C(OC(C)=O)CC(=O)OC(C)(C)C3C(O)C(OC(C)=O)C2(C)C2C(=O)OC(C)C(=O)C12C (centres undefined) | inconclusive: 14.2 µM [cytotoxic, single point] | inconclusive: 10 µM [cytotoxic, partial curve] |  |
| OC[C@H]1O[C@@H](Oc2ccc3c(c2)OC[C@H]2c4cc5c(cc4O[C@@H]32)OCO5)[C@H](O)[C@@H](O)[C@@H]1O | inconclusive: 7.96 µM [cytotoxic, single point] | inconclusive: 11.2 µM [cytotoxic, partial curve] |  |
| O=C(/C=C/c1ccc(O)c(O)c1)OC[C@H]1O[C@@H](OC2CCCCC2O)[C@H](O)[C@@H](O)[C@@H]1O (some centres undefined) | inactive | inactive |  |

Reference: PubChem BioAssay (NCATS)
